# Some of the results follow.
# B1: PhoQ; a variant is named by its letters at X, in order, P23837 (parent)
# chain: MKKLLRLFFPLSLRVRFLLATAAVVLVLSLAYGMVALIGYSVSFDKTTFRLLRGESNLFYTLAKWENNKLHVELPENIDKQSPTMTLIYDENGQLLWAQRDVPWLMKMIQPDWLKSNGFHEIEADVNDTSLLLSGDHSIQQQLQEVREDDDDAEMTHSVAVNVYPATSRMPKLTIVVVDTIPVELKSSYMVWSWFIYVLSANLLLVIPLLWVAAWWSLRPIEALAKEVRELEEHNRELLNPATTRELTSLVRNLNRLLKSERERYDKYRTTLTDLTHSLKTPLXXLQXXLRSLRSEKMSVSDAEPVMLEQISRISQQIGYYLHRASMRGGTLLSRELHPVAPLLDNLTSALNKVYQRKGVNISLDISPEISFVGEQNDFVEVMGNVLDNACKYCLEFVEISARQTDEHLYIVVEDDGPGIPLSKREVIFDRGQRVDTLRPGQGVGLAVAREITEQYEGKIVAGESMLGGARMEVIFGRQHSAPKDE
# Variants of: B1
# Assay: enrichment ratio after two sorts for PhoP signalling (ratio (wild type AVST 3.29)); higher = more functional
# Details: with PhoP (E. coli)
row,Variant,enrichment ratio
1,WREH,≤ 0.25
2,AYGW,≤ 0.25
3,VGCG,≤ 0.25
4,PRIV,≤ 0.25
5,NAHP,≤ 0.25
6,AMLK,5.12
7,QTTA,≤ 0.25
8,PVFE,≤ 0.25
9,QQNW,≤ 0.25
10,WFRE,≤ 0.25
11,HSVP,≤ 0.25
12,HNFN,≤ 0.25
13,WNTR,≤ 0.25
14,HHFS,≤ 0.25
15,DWYV,≤ 0.25
16,PGRW,≤ 0.25
17,FIYE,≤ 0.25
18,NNPS,≤ 0.25
19,ELYK,≤ 0.25
20,AVTR,7.68
21,VGTV,≤ 0.25
22,VCGM,≤ 0.25
23,FCTR,≤ 0.25
24,VHCC,≤ 0.25
25,WSNY,≤ 0.25
26,GCAE,≤ 0.25

row,Variant,enrichment ratio
1,YATD,≤ 0.25
2,PIME,≤ 0.25
3,ILCN,≤ 0.25
4,VRAW,≤ 0.25
5,ADTS,≤ 0.25
6,NPCY,≤ 0.25
7,MLLW,≤ 0.25
8,NLFF,≤ 0.25
9,TICA,12.3
10,DLVH,≤ 0.25
11,RWIN,≤ 0.25
12,WQIW,≤ 0.25
13,DAID,≤ 0.25
14,EPHW,≤ 0.25
15,WFHE,≤ 0.25
16,TTQA,1.39
17,FTAM,2.38
18,MKGC,≤ 0.25
19,MKPW,≤ 0.25
20,VPKV,≤ 0.25
21,TFWC,≤ 0.25
22,TAGQ,4.6
23,VSWM,2.15
24,ADTY,≤ 0.25
25,SQHA,≤ 0.25
26,SCCE,13.9

row,Variant,enrichment ratio
1,FTIE,≤ 0.25
2,YVLT,≤ 0.25
3,DIRS,≤ 0.25
4,GMCP,≤ 0.25
5,MTTV,≤ 0.25
6,KLLF,≤ 0.25
7,IFGD,≤ 0.25
8,HEYI,≤ 0.25
9,WMQK,≤ 0.25
10,FIYT,≤ 0.25
11,NQRN,≤ 0.25
12,ITHA,≤ 0.25
13,LCPI,≤ 0.25
14,IHSK,≤ 0.25
15,IDLM,≤ 0.25
16,PKRV,≤ 0.25
17,SWRW,≤ 0.25
18,TQAG,28.2
19,YFEF,≤ 0.25
20,DAQH,≤ 0.25
21,YDYM,≤ 0.25
22,SDHN,0.345
23,DVMP,≤ 0.25
24,SRAL,≤ 0.25
25,WPPA,≤ 0.25
26,DKRT,≤ 0.25

row,Variant,enrichment ratio
1,NRGV,≤ 0.25
2,HPDH,≤ 0.25
3,MEIQ,19.4
4,VHNK,≤ 0.25
5,YQRT,≤ 0.25
6,DGYC,≤ 0.25
7,IHNV,≤ 0.25
8,ESVG,≤ 0.25
9,GQAI,4.1
10,IMPG,≤ 0.25
11,LMYY,≤ 0.25
12,LSMD,≤ 0.25
13,QDFF,≤ 0.25
14,RVYW,≤ 0.25
15,VGAT,≤ 0.25
16,TEEC,12.4
17,MQHT,≤ 0.25
18,FNMG,≤ 0.25
19,KPDI,≤ 0.25
20,QSPT,≤ 0.25
21,GRYL,≤ 0.25
22,KSNH,≤ 0.25
23,VQTY,≤ 0.25
24,TKMN,4.26
25,YPET,≤ 0.25
26,DQPD,≤ 0.25

row,Variant,enrichment ratio
1,GNKK,≤ 0.25
2,SGSR,≤ 0.25
3,PFLP,≤ 0.25
4,WVPS,≤ 0.25
5,NCSW,≤ 0.25
6,NPAW,≤ 0.25
7,YISI,2.89
8,WHMF,≤ 0.25
9,NKLG,≤ 0.25
10,YEVW,≤ 0.25
11,SACI,13.7
12,DTFQ,≤ 0.25
13,KKAI,≤ 0.25
14,AQVP,≤ 0.25
15,FRKG,≤ 0.25
16,IYDV,≤ 0.25
17,ICLF,≤ 0.25
18,SHGC,≤ 0.25
19,VAER,≤ 0.25
20,RVSQ,≤ 0.25
21,TFGT,≤ 0.25
22,DADC,≤ 0.25
23,FTMI,13.1
24,WNFF,≤ 0.25
25,VKII,≤ 0.25
26,MYCD,≤ 0.25

row,Variant,enrichment ratio
1,MYVD,≤ 0.25
2,RFRA,≤ 0.25
3,QMRE,≤ 0.25
4,YYLT,≤ 0.25
5,TQDT,≤ 0.25
6,DNNF,≤ 0.25
7,DYSP,≤ 0.25
8,VPEN,≤ 0.25
9,GWYK,≤ 0.25
10,WSIF,≤ 0.25
11,TFEL,≤ 0.25
12,SDCK,≤ 0.25
13,QQLV,1.8
14,EPQF,≤ 0.25
15,DKNN,≤ 0.25
16,PCNC,≤ 0.25
17,GNML,12.2
18,GQYA,≤ 0.25
19,PVVE,≤ 0.25
20,VRGA,≤ 0.25
21,DCDI,≤ 0.25
22,ESYG,≤ 0.25
23,PVFF,≤ 0.25

# Source: a collection of fitness landscapes (doi:10.1126/science.1257360)
